{
  "source": "paper PMC5227004",
  "about": "“Native ESI Mass Spectrometry Can Help to Avoid Wrong Interpretations from Isothermal Titration Calorimetry in Difficult Situations” (Journal of the American Society for Mass Spectrometry, 2016)",
  "target": "DNA-polymerase processivity factor (β-ring) from Escherichia coli (Escherichia coli, UniProt P0A988)",
  "sequence (P0A988 whole entry, looked up)": "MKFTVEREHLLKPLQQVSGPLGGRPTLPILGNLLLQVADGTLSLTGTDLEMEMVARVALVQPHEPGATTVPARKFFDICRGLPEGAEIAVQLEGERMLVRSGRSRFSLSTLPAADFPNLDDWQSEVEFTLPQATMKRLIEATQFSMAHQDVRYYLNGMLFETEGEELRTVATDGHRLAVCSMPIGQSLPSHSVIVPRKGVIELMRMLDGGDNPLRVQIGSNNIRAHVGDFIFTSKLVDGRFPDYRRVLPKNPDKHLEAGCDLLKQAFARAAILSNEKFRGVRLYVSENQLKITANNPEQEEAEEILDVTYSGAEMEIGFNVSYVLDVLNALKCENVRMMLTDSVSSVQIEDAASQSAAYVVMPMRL",
  "test": "Native ESI-MS titration of peptide binding to the E. coli β-ring",
  "details": "βE.coli; cone voltage 100 V; fraction r3 merged with r2",
  "data": [
    {"smiles": "CC(=O)N[C@@H](CCC(N)=O)C(=O)N[C@@H](CC(C)C)C(=O)N[C@@H](CC(=O)O)C(=O)N[C@@H](CC(C)C)C(=O)N[C@@H](Cc1ccccc1)C(=O)O", "note": "[P6]", "values": [
      {"measurement": "P, probability of peptide loss due to gas-phase dissociation (GPD)", "value": 0.056}
    ]}
  ]
}
